Assay results published in PubChem BioAssay AID1346428 (National Center for Advancing Translational Sciences (NCATS), 2018).
“And” between values parts separate entries of the source, which are not always exact repeats. Identical values can stand only once. Among all 48,000 compounds or so, about 1,200 (2.5%) were called active. About 2% were inconclusive and are not listed.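 The calls were made as follows: active = activation of at least 60% and not above a set upper limit (about 1 call in 100 departs from these limits); inconclusive = activation of 40% to 60%, or above that upper limit; inactive = activation under 40%.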 The list shows a part of the results.

Target: Probable G-protein coupled receptor 32 (Homo sapiens) (UniProt O75388)
Experiment: qHTS for Agonists of Human Resolvin D1 Receptor DRV1; also: 0% is about no effect
Conditions: CHO-K1 GPR32 beta-arrestin PathHunter luminescence, 90 min; at 76.9 µM; hits give high values; zero percent set by DMSO-only wells
In short: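 GPR32 activation in stably transfected CHO-K1 cells, detected as beta-arrestin recruitment by enzyme-fragment complementation. Compound exposure: 90 min, 37 °C.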

UniProt O75388, sequence (O75388 whole entry, looked up): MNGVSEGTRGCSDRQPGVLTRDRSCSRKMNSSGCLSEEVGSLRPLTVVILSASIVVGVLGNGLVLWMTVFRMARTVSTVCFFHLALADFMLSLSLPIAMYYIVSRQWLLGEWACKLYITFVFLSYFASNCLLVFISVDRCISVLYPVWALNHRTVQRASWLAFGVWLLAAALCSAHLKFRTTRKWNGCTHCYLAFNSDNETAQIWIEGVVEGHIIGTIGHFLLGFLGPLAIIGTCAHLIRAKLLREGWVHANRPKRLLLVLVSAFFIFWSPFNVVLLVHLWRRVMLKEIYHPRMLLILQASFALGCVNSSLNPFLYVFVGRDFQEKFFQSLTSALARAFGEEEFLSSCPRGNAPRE

activation, active:
CCc1ccc(C2=C(C)C(N3CCC(C(=O)Nc4ccc(F)cc4)CC3)=NS2(=O)=O)cc1 74%, Cc1ccc2oc(-c3cc(NC(=O)Cc4ccccc4)ccc3Cl)nc2c1 64.3%

activation, inactive:
CCOc1ccc(N(CC)C(=O)c2cc3c(s2)-c2ccc(Cl)cc2SC3)cc1 -13%, Cc1cccc(NC(=O)c2ccc(F)c(S(=O)(=O)NCc3ccc4c(c3)OCO4)c2)c1 -13.6%, Cc1ccc(C(=O)NCCSc2c[nH]c3ccccc23)cc1C -10.5%, Cc1ccn2c(Nc3ccc4c(c3)OCO4)c(-c3ccc(C)o3)nc2c1 -14.3%, CCc1ccc(NCc2cc3ccc(OC)cc3n(CC(=O)Nc3ccccc3OC)c2=O)cc1 -7.47%, COC(=O)c1sc2cccc(F)c2c1S(=O)(=O)NC(C)c1ccccc1 (stereo not given) -20.1%, CC(=O)NC(=O)c1ccccc1O -8.43%, COc1ccc(NC(=O)C2(S(=O)(=O)c3ccc(C)cc3)CC2)c(OC)c1 -18.9%, CCOC(=O)C1CCN(C(=O)c2ccc3c(=O)n4nc(Nc5ccccc5)sc4nc3c2)CC1 -13.2%, COc1ccc(-c2c(C)c3ccc(O)c(CN4CCCCC4C)c3oc2=O)cc1OC (stereo not given) -7.74%, CCCN(CCC)C(=O)Cn1c(=O)n(-c2ccc(CC)cc2)c(=O)c2c3c(sc21)CCC3 -13.7%, COc1cc(O)ccc1-c1nc2ccc(Br)cn2c1Nc1ccccc1C -9.4%, CCSc1ncc(Cl)c(C(=O)Nc2ccc(S(=O)(=O)N3CCCCC3CC)cc2)n1 (stereo not given) -3.84%, CCOc1ccc(NC(c2ccc(Cl)cc2)c2nnc(-c3cccc(F)c3)o2)cc1 (stereo not given) -7.3%, Cc1ccc(CN(C(=O)COc2cccc(Cl)c2)c2ccccn2)o1 7.46%, CCCOC(=O)c1ccc(NC(=O)C2CC(=O)N(c3ccc(C)cc3)C2)cc1 (stereo not given) 38.7%, O=C(CSc1nccn1Cc1ccc(F)cc1)NC1CCCC1 -3%, O=C(Nc1ccccc1F)C(c1ccccc1)N1Cc2ccccc2C1=O (stereo not given) -17.1%, COc1cccc(CNc2ncnc3c2nnn3C)c1 3.44%, CNC(=O)C1CCC(Cn2c(=O)c3sccc3n(CC(=O)N3CCCC3)c2=O)CC1 (stereo not given) -15.2%, Cc1cccc2cc(CN(C(=O)c3cccc(Cl)c3)c3ccccc3)c(=O)[nH]c12 -2.45%, COc1cccc(C2CC(=O)Nc3c2c(=O)[nH]c2ncnn32)c1OC (stereo not given) 12.1%, CCc1nc(N)nc(N)c1-c1ccc(Cl)cc1 2.09%, O=C(C1CCN(S(=O)(=O)c2ccc(Br)s2)CC1)N1CCN(c2ccc(F)cc2)CC1 -4.52%, COc1ccccc1C(=O)Nc1cccc(OCc2cc(=O)n3c4c(sc3n2)CCCC4)c1 -2.01%, COc1ccccc1Nc1nn2c(=O)c3ccc(C(=O)NC4CCC(C)CC4)cc3nc2s1 (stereo not given) -3.39%, CCOc1ccc(C2C(C(N)=O)=C(C)Nc3nc(-c4ccc(OC)cc4)nn32)cc1 (stereo not given) -13.7%, O=C(NCC(c1ccc2c(c1)OCO2)N1CCN(c2ccccc2)CC1)C(=O)Nc1ccccc1 (stereo not given) 7.97%, CC(C)c1ccc(S(=O)(=O)c2nnn3c2nc(NCc2cccs2)c2sccc23)cc1 -14.9%, CC(=O)Nc1ccc(OC(=O)c2ccccc2OC(C)=O)cc1 -4.69%, c1ccc2sc(SN3CCOCC3)nc2c1 4.23%, O=c1c2sc3ccccc3c2n(Cc2ccc(F)cc2)c(=O)n1Cc1ccco1 -6.32%, Cc1cc2ccccc2n1CCNC(=O)c1ccccc1F 27.1%, O=C(OCc1cc(=O)n2nc(C3CC3)sc2n1)c1ccc(NC(=O)c2ccccc2Cl)cc1 -3.81%, Cc1c(C(=O)Nc2ccccc2)sc2nc(-c3cc4ccccc4oc3=O)[nH]c(=O)c12 -0.0092%, CCc1ccc2oc(C(=O)Nc3cc(Cl)ccc3OC)cc(=O)c2c1 -8.42%, O=C(Nc1cccc(C(=O)N2CCN(c3ccccc3)CC2)c1)c1nsc2ccccc12 -4.28%, Fc1ccc(Nc2nc(-c3cccc(Cl)c3)c3c(n2)-c2ccccc2OC3)cc1 -0.453%, Cc1ccc(NC(=O)CCn2nc(-c3ccccc3)c3ccccc3c2=O)c(C)c1 29.3%, O=C(Nc1ccc2nc(SCC(=O)N3CCCc4ccccc43)sc2c1)c1ccccc1F -8.75%, CN(C)c1ccc(C(CNC(=O)c2ccccc2Cl)N2CCc3ccccc32)cc1 (stereo not given) -35.9%, CC(C)NCC(O)COc1ccc(CCOCC2CC2)cc1 (stereo not given) 4.29% and 0.537%, CCCCOc1ccc(C(=O)NCCS(=O)(=O)N2CCN(c3ccccc3OC)CC2)cc1 32.5%, CCN(C(=O)CSc1nc2ccccc2nc1Cc1cccc(OC)c1)c1cccc(C)c1 -36.4%, O=C(NC1CC(=O)N(c2ccc(F)cc2)C1)c1ccc(S(=O)(=O)N2CCCC2)cc1 (stereo not given) -2.21%, O=C(COc1ccc(Cl)cc1)Nc1ccc(O)c(-c2nc3ccccc3s2)c1 -8.99%, Cc1ccc(Cn2c(C(=O)O)c(CNCCc3cccs3)c3ccc(C)cc32)cc1 -1.37%, COc1ccccc1NC(=O)c1ccc2[nH]c(C)cc(=O)c2c1 3%, Cc1cc(Br)ccc1NC(=O)COc1cc(=O)n(C)c2ccccc12 -3.84%, Cc1ccccc1NC(=O)c1c(C)oc2ccc(O)c(CN3CCCC(C)C3)c12 (stereo not given) -1.55%, COc1cccc(CNC(=O)CSc2nc3ccccc3nc2Cc2ccccc2)c1 -18.4%, O=c1c2sc3ccccc3c2n(Cc2ccccc2F)c(=O)n1-c1ccccc1Cl -42.5%, Cc1nnc(N2CCC(C(=O)NCc3ccc(F)cc3)CC2)c2nn(-c3ccc(Cl)cc3)c(C)c12 0.0671%
